{"source": "paper PMC4336329", "about": "(PLoS ONE, 2015)", "note": "In all, about 310,000 compounds went through this assay and about 14,000 (4.5%) showed an effect of 50% or more. The effect is printed as a negative number. The list shows a part of the results.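 Note: peak tail current of the secondary pulse compared with the same well before compound.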"}
{"molecular_target": "human ether-à-go-go-related gene (hERG) potassium channel (human, UniProt Q12809)", "sequence (Q12809 whole entry, looked up)": "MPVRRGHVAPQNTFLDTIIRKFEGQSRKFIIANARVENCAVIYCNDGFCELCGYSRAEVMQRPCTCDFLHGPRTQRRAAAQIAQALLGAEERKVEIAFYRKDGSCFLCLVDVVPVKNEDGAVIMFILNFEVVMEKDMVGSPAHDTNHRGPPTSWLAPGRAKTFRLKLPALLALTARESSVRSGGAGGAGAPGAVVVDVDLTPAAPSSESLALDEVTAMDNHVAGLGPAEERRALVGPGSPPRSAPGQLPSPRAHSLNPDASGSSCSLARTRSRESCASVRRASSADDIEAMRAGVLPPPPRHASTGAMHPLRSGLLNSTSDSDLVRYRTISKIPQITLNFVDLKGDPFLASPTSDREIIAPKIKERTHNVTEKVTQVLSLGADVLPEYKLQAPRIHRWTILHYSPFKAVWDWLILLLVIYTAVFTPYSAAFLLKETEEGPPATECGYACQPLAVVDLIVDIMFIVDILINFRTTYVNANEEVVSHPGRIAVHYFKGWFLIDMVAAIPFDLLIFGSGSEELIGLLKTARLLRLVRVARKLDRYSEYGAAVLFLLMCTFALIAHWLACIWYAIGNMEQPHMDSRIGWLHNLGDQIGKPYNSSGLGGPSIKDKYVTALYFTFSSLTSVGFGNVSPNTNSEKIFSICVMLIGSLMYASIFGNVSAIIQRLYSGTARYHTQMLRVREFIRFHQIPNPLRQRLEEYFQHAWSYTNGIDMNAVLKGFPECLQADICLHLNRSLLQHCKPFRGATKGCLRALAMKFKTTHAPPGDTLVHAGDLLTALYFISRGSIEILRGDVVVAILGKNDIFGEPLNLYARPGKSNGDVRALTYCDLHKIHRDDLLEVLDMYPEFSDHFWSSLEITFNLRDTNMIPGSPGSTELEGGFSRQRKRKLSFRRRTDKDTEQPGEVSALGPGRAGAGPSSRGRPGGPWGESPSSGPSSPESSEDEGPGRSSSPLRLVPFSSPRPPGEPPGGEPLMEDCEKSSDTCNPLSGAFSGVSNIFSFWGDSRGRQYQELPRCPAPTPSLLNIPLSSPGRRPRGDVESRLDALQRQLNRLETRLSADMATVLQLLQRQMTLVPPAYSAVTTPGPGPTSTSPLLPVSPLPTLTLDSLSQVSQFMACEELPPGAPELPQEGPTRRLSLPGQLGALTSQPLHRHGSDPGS", "experiment": "primary screen, population patch clamp on CHO cells stably expressing hERG", "units": {"hERG current change (%, negative = inhibition) at 10uM": "%"}}
{"compound": "Cc1nc2nc(SCC(=O)NCCCN3CCCCCC3)nn2c(C)c1Cc1ccccc1Cl", "hERG current change (%, negative = inhibition) at 10uM": -25.6}
{"compound": "COc1ccc(CNC(=O)c2noc3c2CCCC3)cc1", "hERG current change (%, negative = inhibition) at 10uM": -3.49}
{"compound": "NCCCNC(=O)c1ccc(/C=N/O)nc1", "hERG current change (%, negative = inhibition) at 10uM": 15.7}
{"compound": "COc1ccc(NC(=O)c2cccnc2)cc1OCC(C)C", "hERG current change (%, negative = inhibition) at 10uM": 0.662}
{"compound": "COc1ccc2oc(=N)c(-c3nnc4n3CCCCC4)cc2c1", "hERG current change (%, negative = inhibition) at 10uM": 4}
{"compound": "C=C(C)COc1ccc(C2NC(=O)c3ccccc3O2)cc1OCC", "note": "(stereo not shown)", "hERG current change (%, negative = inhibition) at 10uM": 14.7}
{"compound": "CCC(C)NCC(=O)Nc1ccc(S(N)(=O)=O)cc1", "note": "(stereo not shown)", "hERG current change (%, negative = inhibition) at 10uM": 26.7}
{"compound": "O=C1CCN(C(=O)c2cccs2)c2ccccc21", "hERG current change (%, negative = inhibition) at 10uM": -3.14}
{"compound": "CCN(C(=O)COC(=O)/C=C/c1cccc(Br)c1)C1CCS(=O)(=O)C1", "note": "(stereo not shown)", "hERG current change (%, negative = inhibition) at 10uM": -17.2}
{"compound": "O=C1NC(=Nc2ccc(Cl)cc2)SC1Cc1cc(Cl)ccc1Cl", "note": "(stereo not shown)", "hERG current change (%, negative = inhibition) at 10uM": 29.7}
{"compound": "CCOC(=O)Cc1csc(NC(=O)C2CCCCC2C(=O)O)n1", "note": "(stereo not shown)", "hERG current change (%, negative = inhibition) at 10uM": 2.05}
{"compound": "COC(=O)c1ccccc1NC(=S)NC(=O)c1ccc2c(c1)OCO2", "hERG current change (%, negative = inhibition) at 10uM": 32.6}
{"compound": "COC(=O)c1scc(S(=O)(=O)C(C)C)c1N/N=C(\\C#N)C(=O)c1ccc(Cl)cc1", "hERG current change (%, negative = inhibition) at 10uM": 24.2}
{"compound": "O=C(Nc1ccc(Cl)c(Cl)c1)O/N=C/c1ccncc1", "hERG current change (%, negative = inhibition) at 10uM": 11.2}
{"compound": "Cc1ccc(C)c(N2CCN(C(=O)CN(C)S(=O)(=O)c3cnc[nH]3)CC2)c1", "hERG current change (%, negative = inhibition) at 10uM": 4.13}
{"compound": "O=C1CCc2cc(NS(=O)(=O)c3cc(F)ccc3F)cc3c2N1CC3", "hERG current change (%, negative = inhibition) at 10uM": -1.07}
{"compound": "CCC(C)N(C(=O)COC(=O)CNC(=O)c1sc2ccccc2c1Cl)C1CCS(=O)(=O)C1", "note": "(stereo not shown)", "hERG current change (%, negative = inhibition) at 10uM": 3.2}
{"compound": "O=C(CN1C(=O)c2cccc3cccc1c23)N1CCN(c2ccc(F)cc2)CC1", "hERG current change (%, negative = inhibition) at 10uM": 9.69}
{"compound": "COc1ccc(C(=O)NC(=S)NNC(=O)c2c(-c3ccccc3)noc2C)cc1", "hERG current change (%, negative = inhibition) at 10uM": 17}
{"compound": "Cc1ccc(S(=O)(=O)N(c2cccc(C(F)(F)F)c2)C2C=CS(=O)(=O)C2)cc1", "note": "(stereo not shown)", "hERG current change (%, negative = inhibition) at 10uM": 6.3}
{"compound": "COC(=O)Nc1ccc(SCC(=O)c2ccc(Cl)cc2)cc1", "hERG current change (%, negative = inhibition) at 10uM": 21.5}
{"compound": "CCCn1c(C2CC(=O)N(c3cc(OC)ccc3OC)C2)nc2ccccc21", "note": "(stereo not shown)", "hERG current change (%, negative = inhibition) at 10uM": -18.3}
{"compound": "Cc1ccc(-n2c(N)cc(=O)nc2SCC(=O)N2CCN(c3ccccc3)CC2)cc1C", "hERG current change (%, negative = inhibition) at 10uM": 12.7}
{"compound": "CC(=O)Nc1ccc(S(=O)(=O)N2CCN(c3cc(C(F)(F)F)ccn3)CC2)cc1", "hERG current change (%, negative = inhibition) at 10uM": -7.64}
{"compound": "COc1ccc(/C(O)=C2/C(=O)C(=O)N(CCN(C)C)C2c2cccnc2)cc1OC", "note": "(stereo not shown)", "hERG current change (%, negative = inhibition) at 10uM": -8.56}
{"compound": "Cn1c(-c2ccccc2)c(C=O)c2ccccc21", "hERG current change (%, negative = inhibition) at 10uM": -2.25}
{"compound": "COc1ccc2c(c1)[C@@]13CCC=C[C@H]1[C@@H](C2)NCC3.Cl", "hERG current change (%, negative = inhibition) at 10uM": 4.36}
{"compound": "NS(=O)(=O)c1ccc(CCNCC(=O)NC2CC2)cc1", "hERG current change (%, negative = inhibition) at 10uM": -64.1}
{"compound": "Cc1ccc(S(=O)(=O)N2CCOCC2)cc1NC(=O)COC(=O)CCC(=O)c1cccs1", "hERG current change (%, negative = inhibition) at 10uM": -13.8}
{"compound": "O=C(O)CCC1(C(=O)O)OCCc2ccccc21", "note": "(stereo not shown)", "hERG current change (%, negative = inhibition) at 10uM": 0.642}
{"compound": "O=C(Nc1ccnn1C1CCN(C/C=C/c2ccccc2)CC1)C1CCCC1", "hERG current change (%, negative = inhibition) at 10uM": -73}
{"compound": "O=C(CNC(=O)OCc1ccccc1)Nc1ccc(F)cc1", "hERG current change (%, negative = inhibition) at 10uM": 6.08}
{"compound": "Oc1ccc(-c2nc3ncccn3c2Nc2ccc3c(c2)OCO3)cc1", "hERG current change (%, negative = inhibition) at 10uM": 0.66}
{"compound": "COc1ccc(C2CC(c3cccs3)=NN2c2ccccc2)cc1", "note": "(stereo not shown)", "hERG current change (%, negative = inhibition) at 10uM": 7.41}
{"compound": "O=C(CNC(=S)N(Cc1ccccc1)Cc1cccnc1)NCc1ccccc1", "hERG current change (%, negative = inhibition) at 10uM": -0.186}
{"compound": "CCCOc1ccc(C2C(C(=O)OC)=CN(CCOC)C=C2C(=O)OC)cc1", "hERG current change (%, negative = inhibition) at 10uM": -29.5}
{"compound": "O=C1CSC(c2cn(-c3ccccc3)nc2-c2cc3ccccc3oc2=O)N1Cc1ccco1", "note": "(stereo not shown)", "hERG current change (%, negative = inhibition) at 10uM": -16.6}
{"compound": "CSc1ccc(Cl)c(C(=O)OCC(=O)NCC(C)C)c1", "hERG current change (%, negative = inhibition) at 10uM": -21}
{"compound": "CC1=C/C(=N\\OS(=O)(=O)c2ccccc2)C(C(C)C)=CC1=O", "hERG current change (%, negative = inhibition) at 10uM": 22}
{"compound": "Cc1ccc(NC(=S)N2CCC(N(C)CC3CCCO3)CC2)cc1", "note": "(stereo not shown)", "hERG current change (%, negative = inhibition) at 10uM": -4.57}
{"compound": "COc1cccc(S(=O)(=O)NCc2ccc(C(=O)N3CCN(Cc4ccccc4)CC3)cc2)c1", "hERG current change (%, negative = inhibition) at 10uM": -1.68}
{"compound": "CCN(CC)S(=O)(=O)c1ccc(OC)c(NC(=O)CSc2ccccc2)c1", "hERG current change (%, negative = inhibition) at 10uM": -72.9}
{"compound": "CC1CCN(C(=O)c2[nH]cnc2C(=O)Nc2cccc(Cl)c2)CC1", "hERG current change (%, negative = inhibition) at 10uM": 13.8}
{"compound": "Cc1cccc(OCCNC(=O)CSc2ccc(C(F)(F)F)cc2[N+](=O)[O-])c1", "hERG current change (%, negative = inhibition) at 10uM": 12.2}
{"compound": "O=S(=O)(NN1CCOCC1)c1ccc(Br)s1", "hERG current change (%, negative = inhibition) at 10uM": 5.48}
{"compound": "c1ccc(-c2nnc(-c3ccccn3)s2)nc1", "hERG current change (%, negative = inhibition) at 10uM": 14.4}
{"compound": "Cc1cccc(-c2ccc(NC(=O)C3CCN(CC4CC4)CC3)cc2)c1", "hERG current change (%, negative = inhibition) at 10uM": -70.9}
{"compound": "CCC(C)(C(=O)NC1CCCCC1)N(C(=O)CNC(C)=O)c1c(C)n(C)n(-c2ccccc2)c1=O", "note": "(stereo not shown)", "hERG current change (%, negative = inhibition) at 10uM": 6.14}
{"compound": "COc1cc(/C=C/C(=O)O)cc(S(=O)(=O)Nc2ccc3[nH]c(=O)[nH]c3c2)c1OC", "hERG current change (%, negative = inhibition) at 10uM": 14.9}
{"compound": "O=C(NNC(=S)Nc1cccc(C(F)(F)F)c1)c1ccc(Cl)cc1Cl", "hERG current change (%, negative = inhibition) at 10uM": 17.5}
{"compound": "COc1ccc(C(=O)COC(=O)CCN2C(=O)C3C4CC(C(Br)C4Br)C3C2=O)cc1", "note": "(stereo not shown)", "hERG current change (%, negative = inhibition) at 10uM": 11.5}
{"compound": "CC(C)(C)OC(=O)NCCCCCc1nnc(SCc2c(F)cccc2Cl)o1", "hERG current change (%, negative = inhibition) at 10uM": -3.15}
{"compound": "Cc1cc(C(=O)CSc2nc3ccc(Cl)cc3[nH]2)c(C)n1Cc1ccco1", "hERG current change (%, negative = inhibition) at 10uM": 6.99}
{"compound": "CCN(CC(=O)Nc1ccccc1C(F)(F)F)C(=O)c1cccc(S(=O)(=O)N2CCN(C)CC2)c1", "hERG current change (%, negative = inhibition) at 10uM": 0.426}
{"compound": "Cc1ccc(S(=O)(=O)N2CCN(C(=O)c3ccc4c(c3)OCO4)CC2)cc1", "hERG current change (%, negative = inhibition) at 10uM": -17.4}
